Source: article PMC4336329 (PLoS ONE, 2015)
The campaign covered roughly 310,000 compounds. About 2,200 (0.71%) showed an effect of 50% or more. Effects have a minus sign here. The list shows a part of the results.

Biological target: human ether-à-go-go-related gene (hERG) potassium channel (human, UniProt Q12809)
Experiment: primary screen, population patch clamp on CHO cells stably expressing hERG

human ether-à-go-go-related gene (hERG) potassium channel, sequence (Q12809 whole entry, looked up): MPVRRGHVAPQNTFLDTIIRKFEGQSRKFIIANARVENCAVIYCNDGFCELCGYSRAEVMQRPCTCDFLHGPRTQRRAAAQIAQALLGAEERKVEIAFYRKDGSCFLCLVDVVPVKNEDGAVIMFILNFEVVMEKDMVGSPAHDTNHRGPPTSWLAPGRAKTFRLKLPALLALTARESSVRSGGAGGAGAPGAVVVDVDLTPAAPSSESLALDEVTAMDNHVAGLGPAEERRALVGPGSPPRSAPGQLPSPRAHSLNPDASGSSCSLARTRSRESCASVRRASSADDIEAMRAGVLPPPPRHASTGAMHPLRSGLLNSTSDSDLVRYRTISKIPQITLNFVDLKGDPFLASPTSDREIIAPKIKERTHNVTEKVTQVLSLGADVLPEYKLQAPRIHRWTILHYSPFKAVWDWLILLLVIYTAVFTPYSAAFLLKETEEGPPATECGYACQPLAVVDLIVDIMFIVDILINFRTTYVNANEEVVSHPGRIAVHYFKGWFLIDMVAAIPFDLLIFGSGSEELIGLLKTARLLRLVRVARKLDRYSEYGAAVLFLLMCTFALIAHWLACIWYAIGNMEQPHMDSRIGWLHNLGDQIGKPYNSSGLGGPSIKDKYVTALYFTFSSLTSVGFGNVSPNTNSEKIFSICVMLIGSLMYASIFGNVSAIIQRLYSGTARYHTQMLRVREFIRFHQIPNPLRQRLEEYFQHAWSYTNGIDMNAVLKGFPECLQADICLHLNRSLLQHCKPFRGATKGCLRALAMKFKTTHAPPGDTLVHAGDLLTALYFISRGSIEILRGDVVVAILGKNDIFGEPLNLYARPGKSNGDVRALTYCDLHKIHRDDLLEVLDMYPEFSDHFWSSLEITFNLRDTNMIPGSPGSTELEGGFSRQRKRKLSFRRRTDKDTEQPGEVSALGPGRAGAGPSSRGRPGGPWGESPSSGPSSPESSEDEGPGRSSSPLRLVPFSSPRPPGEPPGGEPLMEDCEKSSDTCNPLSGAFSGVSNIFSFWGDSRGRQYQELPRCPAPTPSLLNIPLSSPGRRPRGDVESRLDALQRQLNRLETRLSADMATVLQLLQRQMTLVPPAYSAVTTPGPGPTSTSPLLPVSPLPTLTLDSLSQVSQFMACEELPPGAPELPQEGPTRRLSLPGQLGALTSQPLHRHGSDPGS

Row | SMILES | hERG current change (%, negative = inhibition) at 1uM
1 | CCCCOC(=O)c1ccc(NC(=O)COC(=O)CN2C(=O)NC3(CCCC3)C2=O)cc1 | 8.41%
2 | CCNC(=O)COC(=O)c1[nH]c(C)c(C(=O)OC)c1C | 13%
3 | CC(=O)Nc1ccc(S(=O)(=O)Nc2ccc(-n3cnnn3)cc2)cc1 | 12.1%
4 | Cc1c(C#N)c(N)nc2c3c(sc12)NC(=O)CC3c1ccccc1 (centres unmarked) | 14.2%
5 | O=[N+]([O-])c1ccc(N2CCNCC2)cc1NC1CC1 | -4.7%
6 | CCC(c1nnnn1C(C)(C)CC)N(CCCO)Cc1cc2cccc(C)c2[nH]c1=O (centres unmarked) | -2.36%
7 | Cc1ccc2c(c1)cc(CN(CCc1ccccc1)C(=O)N1CCOCC1)c1nnnn12 | -13.7%
8 | Cc1ccc(N2C(=O)NC(=O)C(CCc3ccncc3)(Cc3cccc(Cl)c3Cl)C2=O)cc1 (centres unmarked) | 11.1%
9 | CCOC(=O)c1[nH]c(C)c(CN(C(C)=O)c2ccc(OCC)cc2)c1C | 13.5%
10 | C=CCn1c(SCc2c(C)noc2C)nc2sc3c(c2c1=O)CCCCC3 | 2.05%
11 | COc1ccc(Nc2nc3ccccc3c(=O)s2)c(OC)c1 | 4.21%
12 | Cc1ccccc1Cn1c(O)c(N=NC(=S)Nc2ccccc2F)c2ccccc21 | 2.06%
13 | CCN=c1scc(-c2ccco2)n1/N=C/c1ccc(O)cc1 | 8.56%
14 | O=[N+]([O-])c1ccc(COc2ccccc2/C=N/O)cc1 | 4.68%
15 | COc1ccc(NC(=O)Cn2ncc(Cl)c(Cl)c2=O)cc1S(=O)(=O)N1CCOCC1 | 9.62%
16 | CCn1c2ccccc2c2cc(NC(=O)COc3ccc(OC)cc3)ccc21 | 11.4%
17 | Cl.NC(N)=NC(=O)Cc1c(Cl)cccc1Cl | 16.4%
18 | CCOc1ccccc1N/C=C/C(=O)C(C)(C)C | 13.8%
19 | Cc1ccccc1OCCNC(=O)/C=C/c1ccc([N+](=O)[O-])cc1 | -7.72%
20 | NS(=O)(=O)c1cc(C(=O)NC2CCSc3ccccc32)ccc1Cl (centres unmarked) | 8.25%
21 | COc1ccc(OC)c(C2=Nn3c(nnc3-c3ccncc3)SC2)c1 | 1.61%
22 | CN(C)CCN=Cc1c(O)n(Cc2ccco2)c(=O)[nH]c1=O | 10.3%
23 | COc1cccc(-c2cc(C(F)(F)F)nc(N3CCC(C)CC3)n2)c1 | 6.81%

Row | SMILES | hERG current change (%, negative = inhibition) at 1uM
24 | O=c1cc(CO)oc(C(Nc2ccccn2)c2ccc(F)cc2)c1O (centres unmarked) | 7.78%
25 | CCS(=O)(=O)Nc1cccc(C2=NN(S(=O)(=O)c3ccccc3)C(c3ccco3)C2)c1 (centres unmarked) | 8.57%
26 | CC(C)CCC[C@@H](C)[C@H]1CC[C@H]2[C@@H]3C(=O)C=C4C[C@@H](O)CC[C@]4(C)[C@H]3CC[C@]12C | 7.94%
27 | C=CCN1C(=O)c2ccccc2NC1c1cc(Br)cs1 (centres unmarked) | 6.74%
28 | Cc1nn(C)c(C)c1CCC(=O)N1CCCC(C(=O)c2cccc(OC(C)C)c2)C1 (centres unmarked) | 13.6%
29 | COC(=O)c1cc(C(=O)c2cc(F)ccc2O)cn2c(=O)c3c(C)c(C)sc3nc12 | 15.2%
30 | Cc1cc(NC(=O)c2ccc(-c3ccccc3F)o2)no1 | 2.14%
31 | COc1ccc(C(=O)Nc2ccccc2C(=O)N2CCCCCC2)cc1 | -4.15%
32 | COc1cccc2cc(C(=O)Nc3ccc(S(=O)(=O)NCC4CCCO4)cc3)c(=O)oc12 (centres unmarked) | 9.6%
33 | N#Cc1ccccc1S(=O)(=O)N1CCN(CC(O)CN2CCOCC2)CC1.O=C(O)C(=O)O (centres unmarked) | -3.23%
34 | C=CCc1cc(OC)ccc1OCC(O)CN1CCN(c2ccc(OC)cc2)CC1 (centres unmarked) | -27.1%
35 | O=C(OCN1C(=O)c2ccccc2C1=O)c1ccco1 | 4.36%
36 | O=C(COC(=O)c1ccc([N+](=O)[O-])s1)Nc1ccccc1 | 2.64%
37 | O=C(CC12CC3CC(CC(C3)C1)C2)N1CCCC1 | 13%
38 | CCCN1C(=S)c2ccccc2C1c1ccccc1 (centres unmarked) | 10.1%
39 | Cc1ccccc1-n1c(N)cc(=O)[nH]c1=S | 15.6%
40 | Cc1ccc(CCN2CC(C(=O)N3CCC4(CC3)OCCO4)CC2=O)cc1 (centres unmarked) | 9.61%
41 | CNC(=O)c1c(Cl)cnn1-c1ccccc1 | 10.5%
42 | O=c1[nH]c2ccccc2c(=O)n1-c1ccc(Cl)cc1Cl | 3.26%
43 | CC(Sc1nnc(Nc2ccccc2)s1)C(=O)NC1CCCc2ccccc21 (centres unmarked) | 8.67%
44 | C/C(=N\N=C(c1ccccc1)c1ccccc1)c1ccco1 | 5.46%
45 | CC1(C)Cc2c(cnn2-c2ccc(F)cc2)C(NC(=O)CN2CCCC2=O)C1 (centres unmarked) | 11.4%
46 | CN1CCN(C(=S)Nc2ccccc2Cl)CC1 | 8.28%

Row | SMILES | hERG current change (%, negative = inhibition) at 1uM
47 | O=C(CN1c2ccccc2Sc2ccccc21)NNC(=S)Nc1ccc(Cl)cc1Cl | 6.37%
48 | Cc1ccc(S(=O)(=O)N2CCN(Cc3nnc(-c4c(-c5ccccc5)noc4C)o3)CC2)cc1 | -13.8%
49 | CCOC(=O)c1sc(-c2ccc(Cl)cc2)nc1O | 6.13%
50 | O=C(Cn1nc2n(c1=O)-c1ccccc1SC2)N/N=C/c1cccs1 | 13.3%
51 | O=S(=O)(NCc1ccc2c(c1)OCO2)c1ccc(F)cc1 | 4.07%
52 | COC(=O)c1ccc(NC(=O)c2ccccc2NS(=O)(=O)c2ccccc2)cc1 | 16.5%
53 | COc1ccc(/C=C/c2nc(-c3ccccc3O)n[nH]2)cc1 | 0.893%
54 | CCOc1cc(C(=O)N2CCC3(CC2)NCCc2[nH]cnc23)cc(OCC)c1OCC | 19.1%
55 | CCOc1ccc(S(=O)(=O)NC2=NCCCCC2)cc1 | 21.5%
56 | Br.COc1ccc(-c2cn3ccccc3n2)cc1OC | 4.44%
57 | Br.CCn1c(=N)n(CC(=O)c2ccc(OC)c(OC)c2)c2ccccc21 | -2.14%
58 | Fc1cccc(NC(=S)N2CCc3ccccc32)c1 | 13.3%
59 | O=[N+]([O-])c1ccc(Sc2n[nH]c(-c3ccc(Cl)cc3Cl)n2)nc1 | 1.2%
60 | Cc1ccc(S(=O)(=O)N2[C@@H](c3cccc(Cl)c3)C(C(=O)O)=CC[C@H]2c2cccs2)cc1 | 14.9%
61 | CC1CCN(c2ncccc2C(=O)O)CC1 | -3.9%
62 | COc1ccc(C)cc1-n1nnnc1SCC1CCCCO1 (centres unmarked) | 2.96%
63 | O=C(CSC1=NC(=O)C(Cc2ccccc2)C(=O)N1)NC1CCCCC1 (centres unmarked) | 13.5%
64 | COc1ccc(C(=O)c2c[nH]c(C(=O)NCc3cccnc3)c2)cc1 | -6.26%
65 | COc1ccc(-c2csc3ncnc(N4CCN(c5ccccc5Cl)CC4)c23)cc1 | 14.8%
66 | COc1ccc(Cl)cc1C(=O)NC(=S)Nc1nc(C)cc(C)n1 | 17%
67 | COc1cccc(C2c3c(-c4ccccc4O)n[nH]c3C(=O)N2Cc2ccco2)c1 (centres unmarked) | 0.477%
68 | Cc1sc2ncn(CC(=O)N(CC(=O)NC3CCCC3)Cc3cccs3)c(=O)c2c1C | -3.65%
69 | Cn1cccc1-c1nc2ccc(NC(=O)c3ccco3)cc2[nH]1 | -3.04%

Row | SMILES | hERG current change (%, negative = inhibition) at 1uM
70 | COc1ccc(C(=O)N/N=C(\C)CC(=O)Nc2ccc3ccccc3c2)c(OC)c1 | 16.7%
71 | COc1ccc(CC(=O)OCn2nnc3ccccc3c2=O)cc1OC | 7.17%
72 | NC(=O)CCCSc1nc2ccccc2[nH]1 | 14.3%
73 | COc1ccc(OCC(O)CNC(C)c2ccccc2)cc1.Cl (centres unmarked) | 9%
74 | NS(=O)(=O)c1ccc(NNC(=O)c2ccccc2)cc1 | 12.6%
75 | O=C(c1ccco1)N1CCN(C(=O)c2ccccc2NS(=O)(=O)c2ccc(F)cc2)CC1 | -2.06%
76 | NC(=O)NC(=O)COC(=O)c1cccc(S(=O)(=O)N2CCCCCC2)c1 | 12.3%
77 | O=C(COC(=O)C1CCN(S(=O)(=O)c2cccc3cccnc23)CC1)c1ccc([N+](=O)[O-])cc1 | 8.06%
78 | CCOC(=O)c1[nH]c2ccc(OC)cc2c1NC(=O)CN1CCC2(CC1)OCCO2 | 14%
79 | CCN(CC)CCNC(=O)CCc1n[nH]c(=O)c2ccccc12 | -1.65%
80 | CC(C)C(=O)Nc1ncc(Cc2ccccc2Cl)s1 | 10.9%
81 | Cc1cccc(-c2nc(CS(=O)CC(=O)NCc3ccco3)c(C)o2)c1 (centres unmarked) | 9.61%
82 | O=C(NCC(=O)N(CC1CCCO1)C(C(=O)NC1CCCCC1)c1ccccc1)c1ccco1 (centres unmarked) | 7.75%
83 | Cn1c(=O)c(-c2cc(Br)ccc2N)nc2ccccc21 | 6.48%
84 | c1ccc(Cc2nn3c(COc4ccccc4)nnc3s2)cc1 | 3.84%
85 | CN(c1c(C#N)c(C(F)(F)F)nn1C)N(S(C)(=O)=O)S(C)(=O)=O | 13.2%
86 | Cc1nn(Cc2ccc(C(=O)NC(C)(C)C)o2)c(C)c1Br | 11.1%
87 | CC1(C)C(c2ccccc2)=NC(c2ccc(Br)cc2)N1O (centres unmarked) | -3.69%
88 | CC(=O)Nc1ccc(S(=O)(=O)NCCC(=O)Nc2ccc(C)c(F)c2)cc1 | 2.99%
89 | O=C(c1ccco1)N1N=C(c2ccc(Cl)cc2)CC1(O)C(F)(F)F (centres unmarked) | 9.8%
